67 sequences from the supplement of paper PMC10126150 can be followed below.

Values marked as one replicate rest on one cluster of the flow cell; about a third of the high ones do not repeat.
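Further: ATP exposure 15 min at 22 °C before imaging.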

This series relates to ATP. Put plainly: switch fluorescence ratio, 500 uM ATP over buffer (Cy3 cluster intensity, sum of 5 cycles each) (fold (ratio)); higher = stronger signal-on switching upon ATP binding; sequences stand for … in TCGTCGGCAGCGTCAGATGTGTATAAGAGACAGTTTTTTTTTTTTTTTTTTTTTTTTT…TC. To be noted: aptamer strand: ATP DNA aptamer (quencher-CACCTGGGGGAGTATTGCGGAGGAAGG + anchor), 100 nM annealed; ATP concentration: 500 uM; one replicate. The method in brief: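 Per cluster, summed Cy3 intensity from the target cycles was divided by that from the buffer cycles to give the fluorescence ratio, then averaged per switch-domain sequence. Clusters outside 100-1000 RFU were excluded. The Cy3-labelled switching-strand clusters, on a modified Illumina MiSeq flow-cell, were annealed to 100 nM quencher-labelled ATP aptamer and imaged in selection buffer, then after 15 min with 500 uM ATP at 22 °C, for five cycles with NaOH stripping and re-annealing between them.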
Regarding CGGTTACTTT, the switch fluorescence ratio was 1.05.

As for GGCACTGTTT, the switch fluorescence ratio was 1.03. Then GGGCCGTGGA, with 1.01.

For TCATGTATGC, the switch fluorescence ratio is 1.02.

As for TAAGATGGTA, the switch fluorescence ratio was 0.977. With TCAGGGACTC, the switch fluorescence ratio came to 1. Then AACACTGCCA, with 1.15; and GAGTTATCAA, with 1.01; and CTAGAATATG, with 0.99.

Consider GGAAGCGAC, for which the switch fluorescence ratio came to 1.07. As for CATTGTTATG, the switch fluorescence ratio worked out at 1.02.

As for TTTAGTTTAC, the switch fluorescence ratio was 1.02. Take ATTAACGGTA: the switch fluorescence ratio was 1.12. On to ATAGAAGACT, for which the switch fluorescence ratio worked out at 0.993.

As to TATAGTCCAT, the switch fluorescence ratio is 0.999.

As for GGGGCACACG, the switch fluorescence ratio came to 0.951. Then AAGAGCAGCT, with 0.986; and TTTGGATCTC, with 0.977; and ACTGGCAGCC, with 0.992. Next, TATGTCTAT: 0.995; TTATTCAGGC: 0.988; TAATATACAT: 1.04.

As for AGTTGAGGTG, the switch fluorescence ratio stood at 1.1. Turning to ATCGGATAAC, the switch fluorescence ratio was found to be 0.998. Next, CCTGGATGTG: 0.974; CTCATTGACT: 1.08.

Regarding GTCAGCGTCC, the switch fluorescence ratio was 1.06. Take CGTCAGTACG: the switch fluorescence ratio was 1.03. Consider CGTCGTGCGG, for which the switch fluorescence ratio amounted to 0.963. With GGAACCATTT, the switch fluorescence ratio turned out to be 1.01. Take CCTTGACAGC: the switch fluorescence ratio was found to be 1.1.

Consider GTTATATGAT, for which the switch fluorescence ratio is 1.03. In the case of AAACGGTACG, the switch fluorescence ratio came to 1.01. Then GAAAAACGGC, with 1.13.

Regarding AGTTATGCGG, the switch fluorescence ratio stood at 0.946. For AAGAGTCACG, the switch fluorescence ratio amounted to 1.01.

CTATTATAAT: the switch fluorescence ratio was 0.986. Consider GGTGAGAAA, for which the switch fluorescence ratio was determined as 2.33. Take GCGTGCTGCA: the switch fluorescence ratio stood at 1.03. As to GTTCCTTATA, the switch fluorescence ratio was found to be 0.972. CCGTCCTAGC: the switch fluorescence ratio was found to be 1.24. Then CAGAGATAAC, with 1.03. As for TTGCGGGTCC, the switch fluorescence ratio turned out to be 0.928. In the case of GACTTTAGCT, the switch fluorescence ratio was 1.02. Then AATACCTGTT, with 0.971; and ACGCAATGGC, with 2.51. Take ACGCGAATGG: the switch fluorescence ratio was found to be 1.13. As for TAATTCGGGC, the switch fluorescence ratio amounted to 1. In the case of TCTCATTGT, the switch fluorescence ratio amounted to 0.984. Then GCTGAGCTCC, with 1.04; and GGGCCTCGTT, with 0.968; and ACCTTTTGGA, with 0.999.

With CGCGGTGATA, the switch fluorescence ratio is 1.02. On to TAACTAGTCC, for which the switch fluorescence ratio came to 0.976. As to ATCTCGCGA, the switch fluorescence ratio worked out at 1.19.

As to GTACCGGGTA, the switch fluorescence ratio amounted to 1. Regarding GGCGTCCAGG, the switch fluorescence ratio was found to be 1.12. Next, AATGATTTGA: 0.997; CCATTGTGGA: 1.03. On to ACGTATTTAT, for which the switch fluorescence ratio is 1.14. For the sequence ATTCGGTACT, the switch fluorescence ratio came to 1.02. Then GCGGGCTTAT, with 0.975. Then CAGTAGCGT, with 0.969. For the sequence AAATAAAAAA, the switch fluorescence ratio came out at 0.967.

Consider GCCGAAGTGG, for which the switch fluorescence ratio was determined as 1. As to TTATAACTAC, the switch fluorescence ratio worked out at 1.07. Regarding CGTGGCCTGC, the switch fluorescence ratio amounted to 1.01.
